The values below come from PubChem BioAssay AID488969 (Vanderbilt High Throughput Screening Facility, 2010).

In all, about 110,000 compounds were measured (“z-score”: median about -0.1, highest 2% from about 2 on). Some of the results follow. The source made the active and inactive calls.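 The calls were made as follows: active = z-score in the third read window above 3 or below -3; inactive = the rest.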

This experiment concerns the target Metabotropic glutamate receptor 8 (Rattus norvegicus) (UniProt P70579). Nature of the experiment: rat mGluR8 modulators via GIRK flux, primary screen, cell-based, thallium flux, HTS (AID 488969). The note with it: HEK293 rat mGluR8, GIRK (G protein-gated inwardly rectifying potassium channel) thallium flux, FluoZin2; at 10 µM; stronger effect = higher value; submaximal glutamate (EC20) added with thallium.
Sequence of UniProt P70579 (P70579 whole entry, looked up): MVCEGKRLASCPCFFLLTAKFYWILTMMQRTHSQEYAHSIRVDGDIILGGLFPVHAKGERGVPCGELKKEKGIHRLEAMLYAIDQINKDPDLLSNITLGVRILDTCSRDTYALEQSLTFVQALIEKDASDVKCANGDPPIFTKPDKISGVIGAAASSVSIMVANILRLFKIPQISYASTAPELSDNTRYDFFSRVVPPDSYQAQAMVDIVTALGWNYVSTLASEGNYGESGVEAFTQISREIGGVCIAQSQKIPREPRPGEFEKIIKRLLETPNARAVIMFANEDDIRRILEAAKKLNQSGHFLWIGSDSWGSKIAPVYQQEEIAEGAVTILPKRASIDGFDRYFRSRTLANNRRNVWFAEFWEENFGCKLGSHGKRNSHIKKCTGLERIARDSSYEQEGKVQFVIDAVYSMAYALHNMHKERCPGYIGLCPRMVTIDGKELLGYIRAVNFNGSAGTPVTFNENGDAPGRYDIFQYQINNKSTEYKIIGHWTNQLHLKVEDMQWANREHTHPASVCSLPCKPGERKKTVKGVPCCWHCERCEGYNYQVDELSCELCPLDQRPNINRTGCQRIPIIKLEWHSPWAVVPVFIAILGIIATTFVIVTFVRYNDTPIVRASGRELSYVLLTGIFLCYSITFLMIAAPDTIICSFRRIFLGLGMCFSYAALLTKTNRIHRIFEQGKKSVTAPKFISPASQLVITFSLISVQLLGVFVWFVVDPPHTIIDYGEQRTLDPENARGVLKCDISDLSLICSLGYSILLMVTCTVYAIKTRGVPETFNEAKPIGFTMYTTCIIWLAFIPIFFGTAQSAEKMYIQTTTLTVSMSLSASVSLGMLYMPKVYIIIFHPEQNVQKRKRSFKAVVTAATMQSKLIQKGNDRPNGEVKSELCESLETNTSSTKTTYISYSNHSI
For `Cc1ccc(-n2ncc3c(=O)n(CC(=O)Nc4cccc(Cl)c4)cnc32)cc1C`, the z-score is -1.6. The molecule `O=C(COC(=O)C1CC(O)CN1S(=O)(=O)c1ccc(Cl)cc1)c1ccccc1Cl` (centres undefined) returned a z-score of 0.661. `Cc1ccc(CNC(N)=S)cc1` displayed a z-score of 0.0494. Turning to `COc1ccc(S(=O)(=O)Nc2c3ccccc3nc(=O)n2-c2ccccc2)cc1`, the z-score is -0.244.

`COc1ccccc1NC(=O)Nc1nnc(C(C)C)s1` returned a z-score of -0.0837. Consider `CCCCn1c(/N=C/c2ccccc2NS(=O)(=O)c2ccc(C)cc2)nc2ccccc21`, for which the z-score is -0.153. Molecule `CCCNc1nc(N)nc(-c2cc(Cl)ccc2OC)n1` had a z-score of -0.121.

For the molecule `COc1ccc(N/C(N)=N/c2nc(CSc3ccc(C)cc3)cc(=O)[nH]2)cc1`, the z-score is 0.674.

Regarding `COc1ccc(C(=O)c2coc3ccc(O)c(CN4CCCCC4)c23)cc1`, the z-score was 0.0413. In turn, `CN(C)CCCN(C(=O)CCc1ccccc1)c1nc2c(F)cccc2s1` yielded a z-score of 1.15.

On to `CCc1c(C)nc(N2CCN(Cc3ccccc3)CC2)[nH]c1=O`, for which the z-score was -0.111. Turning to `Cc1ccc(C)c(-c2nc3ccc(N)cc3[nH]2)c1`, the z-score was -0.0213. With `COc1cccc(N2CCN(C(c3ccccn3)c3nnnn3C(C)(C)C)CC2)c1` (centres undefined), the z-score amounted to 0.761. Then `CCOC(=O)c1oc2c(c1C)/C(=N/O)CCC2`, with 0.105; and `C=CCn1c(N)c(C(=O)Nc2ccc(C)c(C)c2)c2nc3ccccc3nc21`, with 0.661; and `CCSc1nnc(NC(=O)c2ccc(C)o2)s1`, with -0.482. Take `O=C(NC1CCCC1)c1noc2c1CCCCC2`: the z-score is -0.282. Regarding `COc1ccc2[nH]c(=O)c(-c3noc(-c4ccccc4)n3)cc2c1`, the z-score was -0.102. In the case of `O=C(N1CCOCC1)N1CCN(S(=O)(=O)N2CCOCC2)CC1`, the z-score worked out at 0.338. Turning to `Cc1ccc(-c2nn(-c3ccccc3)cc2C(=O)OCC(=O)Nc2ncc(Cl)cc2Cl)cc1`, the z-score was -0.251. In the case of `O=C(N/N=C/c1ccco1)c1cccc(S(=O)(=O)Nc2ccccc2Cl)c1`, the z-score is -0.35.

In turn, `CCOC(=O)N1CCN(C(=O)COc2cccc3c2CCN(Cc2ccccc2F)C3=O)CC1` yielded a z-score of -0.403. For `CC(C)(C)c1ccc(C(=O)N/C(=C\c2cccs2)C(=O)NCc2ccco2)cc1` the value was -0.333. `COC(=O)CSc1nnc(CNc2ccc(Cl)cc2)n1-c1ccccc1` yielded a z-score of -0.193.

As to `Cc1ccc(C(=O)CC(=O)c2cccc(F)c2)c(O)c1`, the z-score was active: 8.38. `CCCCOc1ccc(C(=O)N2CCCC2C(=O)O)cc1` (centres undefined): the z-score is -0.212. For `CCc1ccc(-c2nc(CN3CCCC(C(=O)O)C3)c(C)o2)cc1` (centres undefined) the value was 1.34; for `O=C(NCc1cccnc1)c1cccnc1-c1nc2ccccc2s1`, -0.394. For the molecule `COc1ccc(N2C3=C(CC4=C2CCCC4=O)C(=O)CCC3)cc1`, the z-score was -0.404. `COc1ccc2c(c1OC)C(=O)OC2Nc1ccccn1` (centres undefined) returned a z-score of -0.13. In the case of `COc1cc2ccccc2cc1C(=O)Nc1cccnc1`, the z-score is -0.706. With `Cn1nnnc1SCC(=O)NC1CCCCC1`, the z-score was -0.00615.

For the molecule `Cc1ccc(C)c(C(=O)CN2C(=O)NC3(CCC(C)CC3)C2=O)c1` (centres undefined), the z-score was -0.568.

With `O=C(Nc1ccccc1)N1CCN(c2ccc(C(F)(F)F)cn2)CC1`, the z-score was -0.362. Then `Fc1cccc(NC(=S)NCCCN2CCOCC2)c1`, with -0.0987; and `O=C(NC1CCCCCCC1)c1ccc2c(c1)OCO2`, with 0.914; and `COc1ccc(C2C(CC(=O)O)=C(O)C(=O)N2c2ccccc2)cc1` (centres undefined), with 0.235. On to `C=CCOc1cccc(C2C(C(=O)c3ccc(C)o3)=C(O)C(=O)N2c2nccs2)c1` (centres undefined), for which the z-score is active: -3.73. As for `COc1cc(CNC(C)(C)C)cc(Br)c1OCc1cccs1`, the z-score was found to be 0.388. Then `COc1ccc(/C=C/C(=O)Nc2cc(C)nn2-c2nc3ccccc3n2Cc2cccc([N+](=O)[O-])c2)cc1`, with -0.333; and `CN(C(=S)Nc1ccc(F)cc1)C1(c2ccccc2Cl)CCCCC1=O` (centres undefined), with -0.257. In turn, `O=C(CCS(=O)(=O)c1ccccc1)Nc1nccs1` displayed a z-score of 0.417. Then `CCn1c(CSc2nc3ccccc3[nH]2)nc2cc(C(=O)O)ccc21`, with -0.153; and `Cc1cccc(N2C(=O)CC(Sc3ccccc3C(=O)O)C2=O)c1` (centres undefined), with 0.0899; and `O=[N+]([O-])c1cc(C(F)(F)F)ccc1NCCc1c[nH]c2ccc(O)cc12`, with -0.00187. `O=[N+]([O-])c1cc(S(=O)(=O)Nc2ccccc2)ccc1NCc1cccnc1`: the z-score was -0.109. Then `O=C1C2C3CC(C(Br)C3Br)C2C(=O)N1c1ccccn1` (centres undefined), with -0.244; and `Cc1ccc(-c2ccnc3nc(Sc4ncc(C(F)(F)F)cc4Cl)nn23)cc1`, with -1.69; and `O=c1cc(N2CCOCC2)[nH]c(=O)n1Cc1ccc(F)cc1`, with 0.497. `Cc1cc(NC(=O)CSc2nc(CCC3CCCC3)nc3ccccc23)no1` registered a z-score of 0.284.

`O=C(CCS(=O)(=O)c1ccc(Br)cc1)NC1CCCC1` yielded a z-score of -0.148. `CCOC(=O)C1CCN(C(=O)COc2cc(C)c(Br)c(C)c2)CC1` had a z-score of -0.264.

For the molecule `CC(=O)Nc1nnc(C)s1`, the z-score is active: 3.66. Then `Cc1ccc(-c2nnc(SCC(=O)CC(=O)Nc3ccccc3)n2-c2ccccc2)cc1`, with -0.207; and `Cc1cccc(OCC(=O)NC2CCCc3ccccc32)c1C` (centres undefined), with -0.26; and `Cn1nc(C(F)(F)F)c(/C=N/OC(=O)c2ccccc2)c1Sc1ccc(Cl)cc1`, with -0.0788. For the molecule `CCOC(=O)CS(=O)(=O)c1ccc(C(F)(F)F)cn1`, the z-score was -0.0154. The molecule `N#CC1=C(N)OC2=C(C(=O)CCC2)C1C1CC=CCC1` (centres undefined) returned a z-score of -0.603. For `CCCCc1c(O)nc(SCC(=O)c2ccccc2)[nH]c1=O`, the z-score was determined as 0.997. The molecule `Cc1c(Cl)cccc1NC(=O)CSCC(N)=O` came in with a z-score of -0.121. `CCN1CCN(c2cc(C)c3cc(NC(=O)c4ccccc4F)ccc3n2)CC1` had a z-score of -0.352. Then `Cc1ccc(CNC(=O)CCSCCC(=O)NCc2ccc(C)cc2)cc1`, with 0.233; and `CCOC(=O)c1c(C)[nH]c(C(=O)COC(=O)CNC(=O)C2CCCCC2)c1C`, with -0.797; and `CC(C)c1ccc2oc(=O)cc(CN3CCN(c4ccc(F)cc4)CC3)c2c1`, with -0.507. `CCn1c(SCc2ccc([N+](=O)[O-])cc2)nnc1C(C)NC(=O)c1ccc(C)cc1` (centres undefined) had a z-score of -0.256.

As for `CCc1sc(N(C(=O)Cc2ccccc2)c2ccc(F)cc2)nc1-c1ccccc1`, the z-score is -0.45. As to `CCn1cnc2c1c(=O)n(Cc1nnc3n1-c1ccccc1SC3)c(=O)n2Cc1ccccc1`, the z-score turned out to be 0.0685. Regarding `COC(=O)CP(=O)(c1ccccc1)c1ccccc1`, the z-score was 0.162. Take `COc1cc(C(=O)Nc2nnc(C)s2)cc(OC)c1OC`: the z-score was found to be 0.381.

`Cn1c(=O)c2c3c(sc2n2c(SCC(N)=O)nnc12)CC(C(C)(C)C)CC3` (centres undefined) displayed a z-score of 1.12.

Take `Cn1c(-c2ccccc2)cnc1SCc1nc2ccccc2c(=O)[nH]1`: the z-score was -0.441. `CCOc1ccc(CN(C)CC(=O)Nc2cc(OC)c([N+](=O)[O-])cc2C)cc1` yielded a z-score of -0.49. The molecule `CCCC1(C(=O)OCC)NC(c2ccc(N(C)C)cc2)C2C(=O)N(c3ccccc3)C(=O)C21` (centres undefined) yielded a z-score of -0.167. `O=C(NCc1ccc2c(c1)OCO2)c1c(F)c(F)c(F)c(F)c1F`: the z-score is -0.0878. As for `CCC1CCCCN1C(=O)CSc1nnc(-c2ccc(Cl)s2)o1` (centres undefined), the z-score was -0.825. `CCS(=O)(=O)N1CCN(C2Cc3ccccc3C2)CC1` gave a z-score of -0.309.

Regarding `COC(=O)C1=C(C)Nc2ncnn2C1c1ccc(C)o1` (centres undefined), the z-score came out at 1.09. Molecule `O=C(c1ccco1)N1CCN(C(=O)C(c2ccccc2)c2ccccc2)CC1` returned a z-score of 0.626. Then `Cc1cccc(N(C(=O)C(F)(F)F)C(C(=O)NC2CCCCC2)c2cccs2)c1` (centres undefined), with -0.00957; and `O=S(=O)(c1ccc(NC(=S)N/N=C/c2ccc(N3CCOCC3)cc2)cc1)N1CCOCC1`, with -0.0983. Then `CC(C)OC(=O)CSc1nc2ncc(Cl)cc2[nH]1`, with -0.0878; and `CCC(=O)OC1c2ccccc2C(=O)N1Cc1ccccc1` (centres undefined), with -0.264. Then `CCCc1nnc(NC(=O)CNc2ccc(F)cc2)s1`, with 0.0228; and `O=C(N1CCOCC1)C12CCC3CC(CC(C3)C1)C2`, with -0.494; and `CCC(C)NCCOc1cccc(Br)c1` (centres undefined), with -0.179. `COC(=O)c1sc(NC(=O)c2ccoc2C)nc1C` displayed a z-score of 0.0344. `CCCn1cnc2c(c1=O)c1nc3ccccc3nc1n2CCC1=CCCCC1` yielded a z-score of 0.434. As to `O=C(c1cc([N+](=O)[O-])ccc1Cl)N1CCN(c2ccc(F)cc2)CC1`, the z-score was 0.0701.

Take `Cc1oc(=O)c(NC(=O)c2ccc(Cl)cc2)cc1C(=O)c1ccccc1`: the z-score is -0.0857. Take `COc1ccccc1NC(=O)Cn1cncc1-c1ccc([N+](=O)[O-])cc1`: the z-score was -0.494. Then `O=C1C(C=NCCCN2CCOCC2)=C(O)c2ccccc21`, with 0.436. Then `CC(=O)Nc1cc(C(=O)N2CCc3ccccc3C2)ccc1Sc1ccc(C)cc1`, with -0.769; and `COCCn1nnnc1C(c1ccc(OC)cc1)N1CCN(c2ccccc2F)CC1` (centres undefined), with -0.282; and `COc1ccc(CCNC(=O)C2CC(=O)N(C3CCCCCCC3)C2)cc1OC` (centres undefined), with -0.284. With `CN(C)c1ccc(/C=N/NC(=O)c2ccc(Cl)cc2)cc1`, the z-score was -0.158. In the case of `Cc1ccc(C(=O)N2CCN(C3c4cccc5cccc(c45)C3NS(=O)(=O)c3ccccc3)CC2)cc1` (centres undefined), the z-score was -0.141. For `O=C(NC(NCc1cccnc1)C(Cl)(Cl)Cl)c1cccc2ccccc12` (centres undefined) the value was -0.344. As to `O=S1(=O)CCC(NC(=S)NC2CCS(=O)(=O)C2)C1` (centres undefined), the z-score is -0.357.

Turning to `COc1cccc(S(=O)(=O)Nc2ccc(C(=O)N3CCOCC3)cc2)c1`, the z-score came out at 0.0144. `COc1cc(S(=O)(=O)Nc2cccc(C)c2)ccc1N=Cc1c(C)[nH]n(-c2ccccc2)c1=O` showed a z-score of -0.226. `O=C(CCc1ccc(S(=O)(=O)N2CCOCC2)cc1)Nc1cc(Cl)ccc1N1CCOCC1` showed a z-score of 0.154.

With `O=C(c1cc(-n2cnnc2)ccc1Cl)N1CCN(c2nc(-c3ccccc3)cs2)CC1`, the z-score is -0.347.

In turn, `Cc1cccn2cc(CCNC(=O)c3ccc(Br)o3)nc12` showed a z-score of -0.156. Regarding `COc1ccc(C2(CNC(=O)c3ccc(OC)c([N+](=O)[O-])c3)CCCCC2)cc1OC`, the z-score was -0.559.

Molecule `CCCn1c(=O)n(C)c(=O)c2c(SCC(=O)NCc3ccco3)nc(C3CC3)nc21` had a z-score of -0.234. As for `COC(=O)c1ccccc1NC(=O)C(CCS(C)(=O)=O)NC(C)=O` (centres undefined), the z-score was 0.381. `COC(=O)c1ccc(NC(=O)C(=O)N2CCN(C(=S)Nc3cccc(C)c3C)CC2)cc1` gave a z-score of -0.146. Then `CCCCCC(=O)Nc1ccc(N2CCN(C(=O)CCC)CC2)cc1`, with 0.155. Turning to `CCCc1cc(C(=O)NCc2ccc(OC)cc2)no1`, the z-score is -0.288.
